# Source: the supplement of paper PMC12217912
# Some of the results follow. Sequences were assembled here from the parent chain. Values near 0.05 are background.
# B1: TEV protease; numbered along this chain (parent)
# chain: MGESLFKGPRDYNPISSSICHLTNESDGHTTSLYGIGFGPFIITNKHLFRRNNGTLVVQSLHGVFKVKDTTTLQQHLVDGRDMIIIRMPKDFPPFPQKLKFREPQREERICLVTTNFQTKSMSSMVSDTSCTFPSGDGIFWKHWIQTKDGQCGSPLVSTRDGFIVGIHSASNFTNTNNYFTSVPKNFMELLTNQEAQQWVSGWRLNADSVLWGGHKVFMVKPEEPFQPVKEATQL
# Variants of: B1
# Assay: raw area under fraction-flipped curve 0-4 h after induction (AUC4h, not background-subtracted), DNA-recorder readout of cleavage of the substrate (dimensionless); higher = more cleavage of the substrate by the protease variant
# Details: temperature: 34 °C; time window: 0-4 h after rhamnose induction
# Procedure: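 In vivo DNA recorder in E. coli TOP10(DE3) ΔrhaA at 34 °C. Each TEVp single-site mutant (parent TEVp 0) is paired with a single-site variant of the 7-mer TEVs (canonical ENLYFQ|S). The substrate sits between flexible linkers in a Bxb1-sfGFP-TEVs-SsrA fusion, so cleavage stabilises Bxb1 and speeds flipping of a recombination array, read by NGS. The value is the raw area under the fraction-flipped curve over 0-4 h after rhamnose induction (AUC4h), with ≥20 reads per time point. It is not background-subtracted; inactive controls average about 0.047.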
# 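Note: Bxb1 expression induced with 0.2% (w/v) L-rhamnose at OD600 near 0.5, cultures sampled hourly, flipped fraction per protease–substrate barcode pair counted by paired-end Illumina sequencing.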
Variant,area with substrate ENAYFQS,area with substrate ENDYFQS,area with substrate ENEYFQS,area with substrate ENFYFQS,area with substrate ENGYFQS,area with substrate ENHYFQS,area with substrate ENKYFQS,area with substrate ENMYFQS,area with substrate ENNYFQS,area with substrate ENPYFQS,area with substrate ENQYFQS,area with substrate ENRYFQS,area with substrate ENSYFQS,area with substrate ENTYFQS,area with substrate ENVYFQS,area with substrate ENCYFQS,area with substrate ENIYFQS,area with substrate ENYYFQS,area with substrate ENWYFQS
MGESLFKGPRDYNPISSSICHLTNESDGHTTSLYGIGFGPFIITNKHLFRRNNGTLVVQMLHGVFKVKDTTTLQQHLVDGRDMIIIRMPKDFPPFPQKLKFREPQREERICLVTTNFQTKSMSSMVSDTSCTFPSGDGIFWKHWIQTKDGQCGSPLVSTRDGFIVGIHSASNFTNTNNYFTSVPKNFMELLTNQEAQQWVSGWRLNADSVLWGGHKVFMVKPEEPFQPVKEATQL [S60M],0.0646,0.0592,0.0594,0.0642,0.0539,0.0652,0.0458,0.0729,0.0558,0.0707,0.0616,0.0445,0.0618,0.0599,0.0869,–,–,–,–
MGESLFKGPRDYNPISSSICHLTNESDGHTTSLYGIGFGPFIITNKHLFRRNNGTLVVQSLHGVFKVKDTTTLQQHLVDGRDMIIIRMPKDFPPFPQKLKFREPQTEERICLVTTNFQTKSMSSMVSDTSCTFPSGDGIFWKHWIQTKDGQCGSPLVSTRDGFIVGIHSASNFTNTNNYFTSVPKNFMELLTNQEAQQWVSGWRLNADSVLWGGHKVFMVKPEEPFQPVKEATQL [R106T],0.0607,0.0698,0.0417,0.0558,0.0598,0.0663,–,–,–,0.0628,0.0646,0.0623,0.0516,0.0656,0.0704,0.0705,0.12,0.062,–
MGESLFKGPRDYNPISSSICHLTNESDGHTTSLYGIGFGPFIITNKHLFRRNNGTLVVQSLHGVFKVKDTTTLQQHLVDGRDMIIIRMPKDFPPFPQKLKFREPQRGERICLVTTNFQTKSMSSMVSDTSCTFPSGDGIFWKHWIQTKDGQCGSPLVSTRDGFIVGIHSASNFTNTNNYFTSVPKNFMELLTNQEAQQWVSGWRLNADSVLWGGHKVFMVKPEEPFQPVKEATQL [E107G],0.054,0.0872,0.0554,0.0826,–,0.0559,–,0.0918,–,0.0515,–,0.0271,0.0469,0.0563,0.0682,–,0.0995,–,–
MGESLFKGPRDYNPISSSICHLTNESDGHTTSLYGIGFGPFIITNKHLFRRNNGTLVVQSLHGVFKVKDTTTLQQHLVDGRDMIIIRMPKDFPPFPQKLKFREPQREERICEVTTNFQTKSMSSMVSDTSCTFPSGDGIFWKHWIQTKDGQCGSPLVSTRDGFIVGIHSASNFTNTNNYFTSVPKNFMELLTNQEAQQWVSGWRLNADSVLWGGHKVFMVKPEEPFQPVKEATQL [L112E],0.0331,0.0632,0.0591,0.061,–,0.061,0.0489,0.0634,–,0.0504,0.0608,0.0679,–,0.0649,0.0759,0.0509,0.0623,0.0568,–
MGESLFKGPRDYNPISSSICHLTNESDGHTTSLYGIGFGPFIITNKHLFRRNNSTLVVQSLHGVFKVKDTTTLQQHLVDGRDMIIIRMPKDFPPFPQKLKFREPQREERICLVTTNFQTKSMSSMVSDTSCTFPSGDGIFWKHWIQTKDGQCGSPLVSTRDGFIVGIHSASNFTNTNNYFTSVPKNFMELLTNQEAQQWVSGWRLNADSVLWGGHKVFMVKPEEPFQPVKEATQL [G54S],0.044,0.0568,0.0657,–,–,0.054,0.0614,0.0676,–,0.0413,–,0.0596,0.0571,0.047,0.0599,0.0725,0.0703,0.0553,0.0332
MGESLFKGPRDYNPISSSICHLTNESDGHTTSLYGIGFGPFIITNKHLFRRNNGTLVVQSLHGVFKVKDTTTLQQHLVDGRDMIIIRMPKDFPPFPQKLFFREPQREERICLVTTNFQTKSMSSMVSDTSCTFPSGDGIFWKHWIQTKDGQCGSPLVSTRDGFIVGIHSASNFTNTNNYFTSVPKNFMELLTNQEAQQWVSGWRLNADSVLWGGHKVFMVKPEEPFQPVKEATQL [K100F],0.0436,0.0502,–,–,0.0661,0.0673,0.0646,–,0.0432,0.0663,0.0662,0.0752,0.0638,–,0.101,0.0679,–,–,0.07
MGESLFKGPRDYNPISSSICHLTNDSDGHTTSLYGIGFGPFIITNKHLFRRNNGTLVVQSLHGVFKVKDTTTLQQHLVDGRDMIIIRMPKDFPPFPQKLKFREPQREERICLVTTNFQTKSMSSMVSDTSCTFPSGDGIFWKHWIQTKDGQCGSPLVSTRDGFIVGIHSASNFTNTNNYFTSVPKNFMELLTNQEAQQWVSGWRLNADSVLWGGHKVFMVKPEEPFQPVKEATQL [E25D],0.0586,–,0.0686,–,0.0606,0.0601,0.061,0.0869,0.0741,0.0538,0.0579,0.0683,0.0859,0.0674,0.0774,0.0637,0.107,0.0491,–
MGESLFKGPRDYNPISSSICHLTNESDGHTNSLYGIGFGPFIITNKHLFRRNNGTLVVQSLHGVFKVKDTTTLQQHLVDGRDMIIIRMPKDFPPFPQKLKFREPQREERICLVTTNFQTKSMSSMVSDTSCTFPSGDGIFWKHWIQTKDGQCGSPLVSTRDGFIVGIHSASNFTNTNNYFTSVPKNFMELLTNQEAQQWVSGWRLNADSVLWGGHKVFMVKPEEPFQPVKEATQL [T31N],0.0569,0.0619,0.061,0.0511,0.0723,0.0509,0.0613,0.0844,0.0532,–,0.0668,0.0571,0.0589,0.0589,0.0647,0.0633,0.135,0.0581,–
MGESLFKGPRDYNPISSSICHLTNESDGHTTSLYWIGFGPFIITNKHLFRRNNGTLVVQSLHGVFKVKDTTTLQQHLVDGRDMIIIRMPKDFPPFPQKLKFREPQREERICLVTTNFQTKSMSSMVSDTSCTFPSGDGIFWKHWIQTKDGQCGSPLVSTRDGFIVGIHSASNFTNTNNYFTSVPKNFMELLTNQEAQQWVSGWRLNADSVLWGGHKVFMVKPEEPFQPVKEATQL [G35W],0.0651,0.052,–,–,–,0.0378,–,0.0191,0.0413,–,–,–,0.0525,0.0591,0.0344,0.049,0.0477,0.0503,–
